According to PubChem BioAssay AID1845196 (Molecular Pharmacology Branch, DTP, NCI, 2023):
Not every entry of the source has a single result; some have several. This is not the full list of results. An entry can have further records. Results that share an entry are repeated measurements (runs, samples, wells, individuals or studies). Brackets with × give the number of equal values in this list.

Test system: 292921-168-R tumor spheroid viability
Experiment: Anticancer human tumor 292921-168-R patient-derived pancreatic carcinoma cell line growth inhibition
Conditions: compound 30 pM; stronger effect = lower value; spheroids with HUVEC and MSC
From the text: Multicellular complex tumor spheroid response to DNA repair inhibitors in combination with DNA-damaging drugs
This study explores the anticancer activities of DNA-damaging drugs and inhibitors of DNA damage repair, both as single agents and in combinations. Complex tumor spheroids comprised of malignant cells, endothelial cells and mesenchymal stem cells served as an in vitro model for human solid tumors. This model system incorporates physiologically relevant features and patient-derived or established malignant cell lines with clinically relevant genetic alterations from many tumor types. Twenty-six patient-derived or established malignant cell lines were evaluated representing sarcoma, melanoma, small cell lung cancer (SCLC), non-small cell lung cancer (NSCLC), as well as bladder, ovarian and pancreatic cancers. The concentration ranges selected for each drug and investigational agent were based upon clinically achievable concentrations if the clinical Cmax of the agent was known.
Compounds. […] If the clinical Cmax for an agent had not been determined, the highest concentration tested was 10 microM. […]
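Also: spheroids exposed to compounds for 7 days.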

COc1cc2c(cc1O)CCNC21CSC2c3c(OC(C)=O)c(C)c4c(c3C(COC1=O)N1C(O)C3Cc5cc(C)c(OC)c(O)c5C(C21)N3C)OCO4 (stereo unspecified)
viability, T/C: 103, 101, 102 (2×), 99.6, 78.5, 104, 110, 107, 94.1%
